# Measurements as given in ChEMBL document CHEMBL4888484, “Replenishing the malaria drug discovery pipeline: Screening and hit evaluation of the MMV Hit Generation Library 1 (HGL1) against asexual blood stage Plasmodium falciparum ,using a nano luciferase reporter read-out” (2022).
# About 540 (0.36%) of roughly 150,000 compounds showed an effect of 50% or more. Some of the results follow.
# Tested on: Plasmodium falciparum
# Test: Primary screen in NF54 nanoGlo assay, in single point, at 2uM, 72h; a lower Z score goes with more inhibition
# Format: functional, Erythrocyte
# Conditions: timepoint 72 hour
Structure (SMILES),% Inhibition,Z score
COCC(=O)Nc1cc(C(=O)N2CCC[C@H](C(N)=O)C2)c2c(c1)ncn2CCc1ccccc1,2%,-0.34
CN(CC#N)S(=O)(=O)Cc1cccc(F)c1,7%,-0.79
CCCCOc1cccc(NCC(=O)NC(=O)NCC)c1,-11%,1.21
Cc1cc(CN(C)Cc2cnc3ccc(Br)cn23)no1,26%,-2.61
CCC(CC)S(=O)(=O)NC(=O)c1nc(C)n2ccccc12,-7%,0.61
Cc1nc(C)c(CC(=O)Nc2ccc3c(c2)OCO3)c(=O)[nH]1,4%,-0.51
O=C(Nc1ccc(F)cc1F)N[C@@H]1[C@@H]2CCO[C@@H]2[C@H]1N1CCCCC1,17%,-2.26
c1ccc(CC[C@@H]2NCCc3ccccc32)cc1,-17%,2.22
N#C[C@@H](NC(=O)c1cc[nH]n1)c1ccc(OCc2ccccc2)cc1,29%,-3.61
CC1(F)CCN(C(=O)NCC2CC23CC3)C1 (stereo not given),-2%,0.36
CCN(C(=O)c1cccc2c1OCC2)[C@H]1CCS(=O)(=O)C1,-5%,0.86
Cc1ccc2c(c1)c(=O)n(-c1ccccc1Cl)c(=O)n2CC(=O)N1CCCC1,-17%,1.9
O=C(c1ccsc1)N1CCCc2ccccc21,-3%,0.35
Cc1cccc(NC(=O)CC(=O)N(C)CCCO)c1C,3%,-0.4
CCCn1cc(CN2C[C@@H](CO)[C@H](NC(C)=O)C2)c2ccccc21,-13%,2.2
CCc1c[nH]c2ncnc(NCCc3cnc4c(Cl)cnn4c3)c12,-20%,2.76
CC(C)c1nnc(NC(=O)c2ccc3ccccc3n2)s1,-5%,0.72
Cc1oc(-c2cccc(F)c2F)nc1CN(C)Cc1nc2ccc(F)cc2[nH]1,-5%,0.69
CC(C)N1C[C@H](Oc2ccccc2)[C@@H]1C1CCN(C(=O)c2ccc3ncccc3c2)CC1,-18%,2.08
CC1(C)COc2ccc(C(=O)N3CC[C@](C)(O)C3)cc21,-4%,0.71
Cc1nc(-c2ccc(OC(=O)[C@H]3CCCN(C(N)=O)C3)cc2)cs1,-7%,0.86
Cc1nc(CC(N)=NOCC(=O)NC2CCCCCC2)cs1,31%,-3.48

Structure (SMILES),% Inhibition,Z score
COc1ccccc1N1CCN([C@H]2CN(C(=O)C(C)(C)C)C[C@@H]2O)CC1,1%,-0.14
Cc1nc(CC(=O)N(C)c2ccccc2)cs1,-4%,0.75
O=C(Nc1ccc(O)c(C(F)(F)F)c1)c1cccc(-n2ccnc2)n1,-5%,0.55
COc1ccc(CN(C)Cc2cnn(C)c2C)c(OC[C@@H](O)CN2CCCC2)c1,-2%,0.26
CC1CCC(OCC(=O)NC[C@@H]2C[C@@H](OC(=O)COC3CCC(C)CC3)CN2C)CC1 (stereo not given in full),-12%,1.35
CCOC1(c2nc(CCNC(C)=O)no2)CCCC1,-12%,2.38
Cc1cc(CN2CCc3[nH]cnc3[C@@H]2c2cccn2-c2nccs2)on1,-11%,1.07
CCCN1C=NS(=O)(=O)c2cc(C(=O)Nc3ccc(C)c(Cl)c3)ccc21,-2%,0.32
CCn1c(-c2cc(NC(=O)c3ccc(OC)c(OC)c3)[nH]n2)cc2c(OC)cccc21,27%,-3.02
C[C@@](Cn1cccn1)(NC(=O)c1csc(Cl)c1)C(N)=O,8%,-0.99
COc1cccc(C(C)NCC2CCC(C(=O)N(C)C)O2)c1 (stereo not given),-11%,1.63
Cc1noc(C)c1CNC(=O)N1CC(F)C1,0%,0
Cc1cc(=O)n(CC(=O)NCc2ccccc2Cl)c(N)n1,-17%,1.84
COc1ncc(NS(=O)(=O)Cc2ccc(C)cc2)c(OC)n1,-9%,1.83
CCOC(=O)C1CCN(C(=O)c2cc(-c3ccccc3OC)nc3cc(-c4ccccc4)nn23)CC1,-5%,0.87
CC(C)(C)c1ccc2oc(CNCC(=O)Nc3cnccn3)nc2c1,-8%,1.47
CCCOC[C@H]1CCN(C(=O)c2cc(=O)cc(C)[nH]2)C1,-11%,1.67
CC[C@@H](C(=O)NC(C)(C)C)N(C)Cc1cc[nH]n1,-6%,0.78
CN(CC1CCC1)C1(C(N)=O)CCCC1,-2%,0.3
C[C@@H]1CN(Cc2nnnn2CC(=O)NCc2cccnc2N)C[C@H](C)O1,-13%,1.17
Cc1nn(-c2nc(CC(=O)Nc3nccs3)cs2)c(C)c1Cc1cccc(F)c1,-19%,3.08
COc1ccccc1-c1nc(NCCc2ccccn2)nc2nn(-c3ccc(Cl)cc3)c(N)c12,-7%,1.37

Structure (SMILES),% Inhibition,Z score
COc1nccc(N(C)C)c1NC(=O)[C@H](C)c1ccsc1,2%,-0.21
Cc1noc(C2CN(S(=O)(=O)c3cccc(F)c3)C2)n1,-14%,2.6
O=c1cc(CN2CCC[C@H](CN3CCOCC3)C2)nc2ccc(Cl)cn12,-5%,0.61
CC(=O)N1C[C@H](C)Oc2ccc(S(=O)(=O)N3CCN(Cc4ccccc4)CC3)cc21,-16%,1.52
COCCN(CCC#N)C(=O)Nc1cccnc1,-6%,0.8
O=C(Nc1ccc(S(=O)(=O)N2CCCC2)cc1)N1CCCCC1,-4%,0.85
Cc1ccc(-c2cc(-c3nc(C4CC4)nn3C3CCN(C)CC3)[nH]n2)s1,22%,-2.85
CCn1ncnc1[C@H](C)NC(=O)CCC(=O)Nc1c(C)cc(C)cc1C,-8%,1.26
COc1ccc(F)c(CN(C)[C@H](c2ccccn2)C2CC2)c1F,-15%,1.97
Cc1cc(C(=O)N2CCCCC3CCCCC32)no1 (stereo not given),0%,-0.07
O=C(C[C@@]1(C(=O)O)CC(c2ccc(F)cc2)=NO1)Nc1ccccc1Cl,-32%,3.75
C=CCC[C@H](O)CN(Cc1ccccc1)Cc1c(-c2ccccc2)nn(C)c1Oc1ccc(C)cc1,5%,-0.81
Cc1ccc(C2=NN(c3nc(-c4ccc(Cl)cc4)cs3)[C@@](O)(C(F)(F)F)C2)cc1,-36%,4.24
O=S(=O)(Nc1cncc(Br)c1O)c1ccc(F)c2ncccc12,7%,-0.71
CCS(=O)(=O)c1ccccc1NCc1nnc(C(C)C)n1C,-13%,1.43
CCc1nnc(-c2c(C)c(S(=O)(=O)NCc3cccc(F)c3)c(C)n2CC)o1,-1%,0.13
Cn1cc(CCC(=O)N2CCc3c(F)ccc(F)c32)cn1,-3%,0.38
Cc1ccc(N2CC[C@@H](C(=O)NCCCN3CCOCC3)C2=O)cc1F,-3%,0.37
O=C(Nc1ccc(Cl)cc1-n1cccn1)N1CCC2CCC(C1)S2(=O)=O (stereo not given),1%,-0.28
C#CCN(C1CCCC1)S(=O)(=O)C[C@H](C)OC,-4%,0.41
Clc1ccc2nc3c(nc2c1)Oc1ccccc1O3,1%,-0.22
CN(Cc1nc(-c2ccsc2)no1)C1CC2CCC(C1)N2C(=O)OC(C)(C)C (stereo not given),-4%,0.6

Structure (SMILES),% Inhibition,Z score
COc1ccc(C(=O)N/C(=N/c2ccc(F)cc2)N2CCN(C3CCCCC3)CC2)cc1,4%,-0.82
CC1CCN(CC(=O)N[C@](C)(C#N)C(C)C)CC1,-12%,1.24
Cc1ncc(CNC(=O)c2ccc(OC(C)C)cc2Cl)c(O)n1,-8%,1.2
Cc1nc(-c2ccc(Cl)c(S(=O)(=O)N3CCC(C(=O)N4CCc5ccccc54)CC3)c2)no1,4%,-0.53
CN(C)S(=O)(=O)c1cccc(Cl)c1Cl,-7%,1
O=C(c1cn(Cc2cccs2)nn1)N1CCc2c(Cl)cccc2C1,0%,-0.01
Cn1c(C(=O)N2CC[S+]([O-])CC2)cc2cc(C(F)(F)F)ccc21,-6%,0.75
Nc1ccsc1C(=O)NCCc1cc(N2CCCC2)ncn1,-10%,1.28
CC(C)CN(C(=O)Cn1cnc(C(C)(C)C)n1)C1CC1,-8%,0.92
CCCC[C@@H](c1cccnc1)N(C)C(=O)c1ccn(CC)n1,-9%,0.9
CC1(C(N)=O)CN(C(=O)Cc2ccc3c(c2)OCO3)C1,-7%,1.05
CNC(=O)C1CCCCC1NC1CCCC(N2C(=O)c3ccccc3C2=O)C1 (stereo not given),6%,-0.53
CN1CCCN(CC(=O)N2CCO[C@H](c3ccccc3)C2)CC1,-18%,2.31
O=C(CCc1cccc(Cl)c1)N1CC(n2ccnn2)C1,-6%,0.65
CC1CCN(S(=O)(=O)N(C)C2CCOCC2)C2CCCCC12 (stereo not given),-4%,0.42
CCn1cc(C(=O)NC2(c3ccccc3F)COC2)c(C2CC2)n1,-4%,0.71
CCN(CCC#N)C(=O)c1sc(C)nc1CC(C)C,-10%,1.31
COCCNC(=O)[C@@H](NC(=O)c1cccc(OC)c1)C1CCN(C(=O)c2cccc(F)c2)CC1,-8%,1.14
CC(C)CCN1C(=O)CN(S(=O)(=O)c2ccccc2)C[C@@]1(C)C(=O)NCc1ccc(F)cc1,-12%,1.6
